Paper PMC4336329 (PLoS ONE, 2015)
In all, about 310,000 compounds went through this assay and about 2,200 (0.71%) showed an effect of 50% or more. The effect is printed as a negative number. The list shows a part of the results.

Biological target: human ether-à-go-go-related gene (hERG) potassium channel (human, UniProt Q12809)
Experiment: primary screen, population patch clamp on CHO cells stably expressing hERG

Chain of human ether-à-go-go-related gene (hERG) potassium channel (Q12809 whole entry, looked up): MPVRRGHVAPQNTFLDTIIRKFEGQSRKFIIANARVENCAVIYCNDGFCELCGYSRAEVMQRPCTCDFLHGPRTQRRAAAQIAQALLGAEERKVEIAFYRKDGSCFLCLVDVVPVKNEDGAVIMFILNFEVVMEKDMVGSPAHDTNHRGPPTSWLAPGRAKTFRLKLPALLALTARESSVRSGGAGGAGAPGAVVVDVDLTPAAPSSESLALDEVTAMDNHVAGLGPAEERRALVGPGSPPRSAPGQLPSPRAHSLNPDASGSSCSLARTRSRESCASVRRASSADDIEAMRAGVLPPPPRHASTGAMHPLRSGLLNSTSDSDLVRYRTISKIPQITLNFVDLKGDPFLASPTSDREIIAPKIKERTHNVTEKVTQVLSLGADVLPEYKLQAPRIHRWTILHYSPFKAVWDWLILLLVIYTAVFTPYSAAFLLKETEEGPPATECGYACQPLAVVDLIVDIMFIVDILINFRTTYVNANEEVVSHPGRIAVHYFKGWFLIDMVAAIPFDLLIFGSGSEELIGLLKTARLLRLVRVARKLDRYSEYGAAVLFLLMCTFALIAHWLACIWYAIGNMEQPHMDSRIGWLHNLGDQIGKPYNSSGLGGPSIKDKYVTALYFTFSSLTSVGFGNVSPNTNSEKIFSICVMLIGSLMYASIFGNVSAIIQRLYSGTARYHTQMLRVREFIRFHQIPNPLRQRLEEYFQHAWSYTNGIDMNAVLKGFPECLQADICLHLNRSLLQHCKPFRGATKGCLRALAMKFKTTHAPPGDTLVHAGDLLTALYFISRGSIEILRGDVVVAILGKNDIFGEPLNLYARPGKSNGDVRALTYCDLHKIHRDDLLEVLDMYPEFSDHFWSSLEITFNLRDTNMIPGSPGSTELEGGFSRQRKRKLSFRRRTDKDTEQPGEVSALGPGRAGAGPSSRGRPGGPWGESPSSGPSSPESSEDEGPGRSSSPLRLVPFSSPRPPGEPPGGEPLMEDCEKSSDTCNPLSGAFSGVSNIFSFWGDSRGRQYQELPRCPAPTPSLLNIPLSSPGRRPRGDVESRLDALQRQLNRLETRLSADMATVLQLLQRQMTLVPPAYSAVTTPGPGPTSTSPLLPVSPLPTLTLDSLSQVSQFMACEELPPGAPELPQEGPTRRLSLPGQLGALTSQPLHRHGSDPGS

Row | SMILES | hERG current change (%, negative = inhibition) at 1uM
1 | Cc1nn(C)c(Cl)c1C(=O)NCC(=O)O | 5.03%
2 | Cc1cccc(N2C(=O)CC(Sc3nc(-c4ccccc4)c4cc(Cl)ccc4n3)C2=O)c1 (centres unmarked) | 11.3%
3 | COc1ccc(COC(=O)Oc2ccc(CNC(C)=O)cc2OC)c([N+](=O)[O-])c1 | 8.09%
4 | COc1ccc(C(=O)N(C)Cc2ccccc2F)cc1S(=O)(=O)N1CCCC1 | 11.8%
5 | CC1(C(=O)Nc2c(F)c(F)c(F)c(F)c2F)CC1(Br)Br (centres unmarked) | 11.2%
6 | COc1ccc(-c2cc(-c3ccccc3)nc(=O)[nH]2)cc1 | 5.3%
7 | COc1cc(C(=O)Nc2ccc(NC(C)=O)cc2)ccc1OCc1ccccc1 | 16.5%
8 | O=C(COC(=O)C12CC3CC(CC(C3)C1)C2)Nc1ccc(OC(F)F)cc1 | 2.54%
9 | CCC(=O)N1CCc2cc(Br)cc(S(=O)(=O)N3CCCCCC3)c21 | -3.88%
10 | CCc1c(C)nc(N)nc1OCC(F)(F)C(F)F | 4.12%
11 | COc1ccc(NC(=O)CCCN2C(=O)C(c3ccccc3)Oc3cccnc32)cc1 (centres unmarked) | 21.8%
12 | Cc1ccc2cc(CN(CC3CCCO3)S(=O)(=O)c3cccc4nsnc34)c(=O)[nH]c2c1 (centres unmarked) | -23.3%
13 | O=C(CCC1CCCN(Cc2cccc(Cl)c2)C1)NCc1ccccc1F (centres unmarked) | -2.75%
14 | Cc1ccc(Cn2nnc3c(=O)[nH]c(C4CCCN(S(=O)(=O)c5ccccc5F)C4)nc32)cc1 (centres unmarked) | 10.2%
15 | O=C(Nc1cccc(C(=O)N2CCOCC2)c1)c1ccc([N+](=O)[O-])cc1 | 8.86%
16 | COc1cc2c(cc1OC)CN(CC(=O)Nc1ccc3c(c1)OCO3)CC2 | 14.5%
17 | O=C(c1ccccc1)c1ccc(OCC(O)CN2CCN(S(=O)(=O)N3CCCCC3)CC2)cc1 (centres unmarked) | -12.6%
18 | Cc1nn(Cc2ccc(Cl)cc2)c(C)c1NC(=O)c1noc2c1CCCCC2 | -9.73%
19 | Cc1c(-c2ccc(OCc3ccccc3)cc2)nc2ccccc2c1C(=O)O | 12.7%
20 | COCCN(C(=O)COC(=O)c1cc2c(s1)CCCC2)c1c(N)n(Cc2ccccc2)c(=O)[nH]c1=O | 0.316%
21 | COCCNC(=O)C1(C)C=CC2(CCCCC2)N1C(=O)c1ccccc1 (centres unmarked) | 7.04%
22 | CS(=O)(=O)N(CC(=O)Nc1cccc([N+](=O)[O-])c1)c1ccccc1F | 8.84%

Row | SMILES | hERG current change (%, negative = inhibition) at 1uM
23 | Cc1ccc(S(=O)(=O)N2CCC(=O)CC2)cc1 | 3.36%
24 | Cc1nn2c(NCc3ccccn3)cc(C(C)C)nc2c1-c1ccccc1 | 12.4%
25 | O=C1c2ccccc2-c2ccc(C(=O)N3CCOCC3)cc21 | -4.45%
26 | CC(C)n1cnc2c(NCc3ccccc3)cc(Cc3ccc(F)cc3)cc21 | 14%
27 | CCOc1ccc(/C=C(\C#N)C(=O)c2c(C)[nH]c3ccccc23)cc1OC | 10.6%
28 | O=C(O)c1cccc(NS(=O)(=O)c2ccc(Cl)c(C(=O)Nc3cccc([N+](=O)[O-])c3)c2)c1 | 12%
29 | O=C(N/N=C/c1ccncc1)NC1CCCCC1 | 17.3%
30 | Fc1c(F)c(F)c(/C=N/NC(=S)Nc2cccnc2)c(F)c1F | 12.1%
31 | CC1CCN(c2ccc(C(=O)NCc3ccc4c(c3)OCO4)cc2[N+](=O)[O-])CC1 | 4.49%
32 | CCn1c(NCc2cc(OC)ccc2OC)nc2ccccc21 | 3.13%
33 | O=S(=O)(c1ccccc1)C1(C2CC(c3ccccc3)=NO2)CC(O)C1 (centres unmarked) | -9.74%
34 | Fc1ccc(CNC(=S)Nc2cccc(C(F)(F)F)c2)cc1 | 11.9%
35 | CCS(=O)(=O)N1CCC(C(=O)Nc2ccccc2OC)CC1 | 13.3%
36 | CC(C)CN(CC(C)C)S(=O)(=O)N1CCC(C(=O)NCc2ccccn2)CC1 | 2.28%
37 | COc1ccc(OCC(=O)Nc2ccc(NC(=O)c3cccs3)c(OC)c2)cc1 | 1.28%
38 | CC(NC1c2ccccc2-c2ccccc21)c1ccccc1 (centres unmarked) | 10.9%
39 | CC1CCCC(C)N1C(=O)Cn1nnc(-c2ccccc2)n1 (centres unmarked) | 16.6%
40 | CCOc1ccc(N=C(NC#N)SCC(=O)NC2CC2)cc1 | 0.963%
41 | COC(=O)C(Cc1ccccc1)NC(=O)c1ccc(C)cc1 (centres unmarked) | -0.691%
42 | Cc1ccnc(NC(=O)c2cc(S(=O)(=O)N3CCCCC3)ccc2Cl)c1 | 4.56%
43 | O=C(COC(=O)c1ccncc1)NCc1ccccc1 | 15.2%
44 | O=C(COc1ccc(F)cc1)Nc1cc(Cl)ccc1-n1cncn1 | 12.2%
